# Experimental data reported in article PMC4336329 (PLoS ONE, 2015).
# The whole screen tested about 310,000 compounds, of which about 14,000 (4.5%) showed an effect of 50% or more. The effect is printed as a negative number. Some of the results follow.
# Target: human ether-à-go-go-related gene (hERG) potassium channel (human, UniProt Q12809)
# Assay: primary screen, population patch clamp on CHO cells stably expressing hERG
# 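Note: peak tail current of the secondary pulse compared with the same well before compound.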
# Sequence of human ether-à-go-go-related gene (hERG) potassium channel (Q12809 whole entry, looked up): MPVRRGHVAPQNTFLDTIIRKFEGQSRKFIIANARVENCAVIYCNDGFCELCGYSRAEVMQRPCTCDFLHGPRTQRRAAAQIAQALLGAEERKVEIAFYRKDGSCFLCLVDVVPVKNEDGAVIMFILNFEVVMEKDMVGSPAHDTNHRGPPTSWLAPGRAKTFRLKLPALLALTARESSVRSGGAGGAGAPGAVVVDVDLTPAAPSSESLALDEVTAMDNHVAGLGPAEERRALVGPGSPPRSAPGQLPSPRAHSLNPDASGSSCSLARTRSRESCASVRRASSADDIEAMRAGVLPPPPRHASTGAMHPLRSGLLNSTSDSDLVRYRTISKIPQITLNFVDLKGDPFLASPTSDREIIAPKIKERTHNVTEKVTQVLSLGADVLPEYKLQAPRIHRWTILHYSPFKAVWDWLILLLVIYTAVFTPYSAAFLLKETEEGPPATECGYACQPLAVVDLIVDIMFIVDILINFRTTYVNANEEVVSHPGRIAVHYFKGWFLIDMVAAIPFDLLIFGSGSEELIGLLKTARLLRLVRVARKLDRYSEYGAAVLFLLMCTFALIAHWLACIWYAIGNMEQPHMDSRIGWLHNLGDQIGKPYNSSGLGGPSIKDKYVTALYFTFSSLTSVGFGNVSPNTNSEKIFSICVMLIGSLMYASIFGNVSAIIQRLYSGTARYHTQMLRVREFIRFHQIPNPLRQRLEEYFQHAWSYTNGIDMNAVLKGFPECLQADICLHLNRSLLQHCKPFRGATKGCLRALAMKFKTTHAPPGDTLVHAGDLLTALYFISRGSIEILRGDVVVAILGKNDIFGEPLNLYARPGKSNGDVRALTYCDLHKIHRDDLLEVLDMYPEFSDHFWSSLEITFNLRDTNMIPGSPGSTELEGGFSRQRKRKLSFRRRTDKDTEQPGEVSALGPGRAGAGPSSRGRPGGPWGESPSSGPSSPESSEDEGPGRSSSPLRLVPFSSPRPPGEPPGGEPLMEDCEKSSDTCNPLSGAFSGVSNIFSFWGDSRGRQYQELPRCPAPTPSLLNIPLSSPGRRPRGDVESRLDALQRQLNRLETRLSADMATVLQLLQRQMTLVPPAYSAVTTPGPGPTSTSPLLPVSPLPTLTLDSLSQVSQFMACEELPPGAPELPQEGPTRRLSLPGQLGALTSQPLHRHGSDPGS
row,Structure (SMILES),"hERG current change (%, negative = inhibition) at 10uM"
1,N#CC(C(=O)NCc1ccco1)c1nc2ccccc2nc1N1CCOCC1 (stereo not shown),-14.3%
2,COC(=O)c1ccc(OCCOCCOc2cccc3ccc(C)nc23)cc1,-3.06%
3,COc1cccc(-c2nc(CS(=O)(=O)CC(=O)Nc3ccccc3Cl)c(C)o2)c1,7.71%
4,CN(Cc1ccccc1)C(=C(Cl)Cl)/C(=C1/NCCN1Cc1ccc(Cl)nc1)[N+](=O)[O-],-42.7%
5,O=C(CNc1cccc2ccccc12)N/N=C/c1ccc([N+](=O)[O-])cc1,11%
6,O=c1[nH]c2ccc(S(=O)(=O)N3CCCCC3)cc2s1,-4.64%
7,NC(=O)COc1ccccc1,10.7%
8,COC(=O)c1ccc(-c2ccc(F)cc2)nc1C,2.9%
9,CC(C)(C)N(Cc1ccccc1)C(=O)CCc1ccccc1,11.8%
10,CC(C)[C@H]1CC[C@@H](C)C(C(=O)c2ccccc2)C1=O (stereo partly shown),-12%
11,Cc1cccc(C(C)C)c1NC(=O)C1CCN(S(=O)(=O)c2ccccc2)CC1,5.19%
12,N#Cc1ccc(OCC(=O)N2CCN(S(=O)(=O)c3cccs3)CC2)cc1,-72.1%
13,Cc1cc(C(=O)NCC(=O)OC(C(=O)Nc2cc(C(F)(F)F)ccc2Cl)c2ccccc2)ccc1[N+](=O)[O-] (stereo not shown),-6.65%
14,CC(C)c1cc(C(=O)OCC(=O)N2CCN(C(=O)c3ccco3)CC2)c(O)c(C(C)C)c1,0.678%
15,CC(Cc1ccccc1)NC(=O)/C=C/C(=O)O (stereo not shown),1.42%
16,COCCN(C(=O)COC(=O)C1=COCCO1)c1c(N)n(Cc2ccccc2)c(=O)[nH]c1=O,31.1%
17,Nc1nnc(SC2CCCC2)s1,-0.499%
18,Cn1c(=O)c2c(n(C)c1=O)=NC1(CCCCC1)ON=2,-15.4%
19,Cc1ccc(S(=O)(=O)NC2CCSC2=O)cc1C (stereo not shown),2.32%
20,Cc1ccc(S(=O)(=O)Nc2cc(=O)[nH]c(SCC(=O)Nc3ccccc3C(F)(F)F)n2)cc1,10.7%
21,O=C(CS(=O)(=O)c1ccccc1)Nc1nccs1,17.9%
22,O=S(=O)(NC1CCCCC1)OCC(Cl)(Cl)Cl,-28.1%
23,O=S1(=O)CC(O)C(Nc2ccc(Cl)cc2)C1 (stereo not shown),7.96%
24,O=C(CSc1ncnc2c1nnn2Cc1ccccc1)NC1CCCC1,10.4%
25,C=CCNC1=C(Cl)C(=O)N(c2ccccc2Cl)C1=O,-14.8%
